# Results reported in the supplement of paper PMC11417369.
# The list shows a part of the results.
# System: PF3D7_0420300 AP2 domain 1 (GST-tagged)
# Experiment: gcPBM binding intensity (ln(normalized median fluorescence intensity)); higher = stronger DNA binding
# Procedure, shortened: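 Probes on an Agilent 4 × 180k array were primer-extended, double-stranded and 36 bp long, taken from intergenic genomic regions, with negative controls added. GST-tagged P. falciparum DNA-binding domains from E. coli, about 25 μg on average, were applied to the array for 1 h in 1× PBS containing 1% milk, 0.2 mg/ml BSA, 0.5% salmon testes DNA and 0.03% Triton X-100. Binding intensity, obtained after Alexa488 anti-GST antibody detection and a 488 nm scan, is the highest Masliner-normalised natural-log median intensity across replicate spots of either probe orientation.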
row,Sequence,gcPBM binding intensity (ln)
1,AAATTTCATGGGTATTGTACATAATTTTATTATATA [XGTACX_site4988],9.42
2,ACATAAGATGAAAAATGTACATTCAAAAAATGAAAT [XGTACX_site3227],9.26
3,TTTTAAATATGCCATACACACTACTATATAATAAAT [CACACA_site5119],9.37
4,AAAAAAAAAAAATATTGTAGAATATGATGACTTTGT [GTGCAC_negctrl_site554],9.15
5,ATTTTATTTTCATATGAACACACATATATATATTAT [CACACA_site8741],9.64
6,CTGCGTTTAATATGCGTGCACCTTGGTTTTATATCT [GTGCAC_site9525],9.55
7,GTTAATATACTTAATACACACACGAATATATATAAA [CACACA_site1181],9.86
8,ATTCTATACATATATATACACACGTAGTTTCTATTT [CACACA_site2223],9.55
9,AAAAAAAAAAAGAAGGAAACATTTGACCAAAAATAT [GTGCAC_negctrl_site404],9.46
10,ATATACTTACATATTACACACAATATTTTTAAATGT [CACACA_site3627],9.52
11,AAGGGAATATACCTTACACACAAAAATGCAGATATA [CACACA_site1451],9.75
12,AAAGTAAAAAAAAAAACATGCACATATTTACTTTAT [TGCATGCA_site849],9.39
13,TTTTTTTTGGTTTTCATGCACACAATTTATAAATCT [CACACA_site3107],9.5
14,CTAATCAAAATAAATTAACACACAATTTTAATATTG [CACACA_site7887],9.33
15,ATAAAACATAAAAATCGTACAAAGGAGGATATAAGG [XGTACX_site420],9.74
16,TGGAGGTCAGTTCACAGTACCCAGAAAACTCTACGA [XGTACX_site2561],9.01
17,AAAATGATGTTAATTACACACATCATCTCATAAACA [CACACA_site3017],9.34
18,ATTATTTATTATTTCTGTACGTATAAAAATAACATT [XGTACX_site1671],9.28
19,ATTTAAATTATAAAATGTACATTTAACAAATTTTAT [XGTACX_site770],8.94
20,TGTAATCTGGAGAAAAGTACACAGTATCTGGTAGCT [XGTACX_site2039],9.15
21,TAACATTATATATATTGTACATAGTAAATATTATAT [XGTACX_site5421],9.13
22,TTTAATTATTAAATGGTGCACTTGAAATATAAAAAT,9.04

row,Sequence,gcPBM binding intensity (ln)
1,CTTTTAATGGTGTAAAGTACTTTCTTAAGGTTCAAA [XGTACX_site8423],9.05
2,TATACAACGTTAAGCACACACAAAAAAAATTTAATA [CACACA_site3086],9.67
3,AAGTTATATAAAGGAACACACATTTGATTTTATTTT [CACACA_site6814],9.4
4,ATATATGGGGCGCAGGAAAAGAGTTTTGGAAATAAA [CACACA_negctrl_site1265],9.2
5,TGAATTCATAGCAGTTGTACATTGCATGAAGAAACG [XGTACX_site3312],9.04
6,TGTTCCGAAGGTTGTACACACATAGAAATATACATA [CACACA_site3874],9.44
7,TTTTTAAAACCTTACATACACACAAATATATATATA [CACACA_site678],9.4
8,TCTTGTATACGGCATGCATGTTAGCACATACGGACA [TGCATGCA_site146],9.21
9,AATACTTTTTATTTAGTGCATAAGAAAATATAAATC [GTGCAC_site9875],9.17
10,TATAAAATATGTATGAGGAATAAAATTAAAAAAAAA [TGCATGCA_negctrl_site178],9.25
11,AAAAAAAAAAATTCGGTGCAATGTAATTAATGTAAA [GTGCAC_site9588],9.41
12,AATTGAAAAATCAGCACACACACAAATACATACATA [CACACA_site3232],9.92
13,TGGTAATACACATACACACACACATACACATATATA [CACACA_site7312],10.2
14,GCTATATATTACAATCGTACAATATATATATATATA [XGTACX_site6730],9.33
15,ATATATATATATATTACACACATGTGCAATTAAAAT [CACACA_site1778],9.62
16,AATATAAGAATATATACACACATAAATACATACATA [CACACA_site4128],9.94
17,GACATTAAAATGAAATATACATATATATGTATATAT [TGCATGCA_negctrl_site601],9.1
18,AAACAAAAAAACTACAGTACTTTTTTCAATTCCCCT [XGTACX_site7541],9.24
19,AAAATTAACCGTAACACACACACATATATATATATA [CACACA_site3964],9.91
20,TATATGTTTACTTAATGTACTTACATTTTTATAACA [XGTACX_site1100],9.24
21,ACATAAATAATAAAAACACACATATGTACTTATATA [CACACA_site8581],9.59
22,TTATTAATTTTTATTTTTAAATCACAAAAGATATAA [CACACA_negctrl_site787],8.69
